{"source": "PubChem BioAssay AID1030", "about": "(National Center for Advancing Translational Sciences (NCATS), 2008)", "note": "The whole screen tested about 220,000 compounds, of which about 16,000 (7.3%) were called active. Inconclusive results, whose numbers are uncertain, are shown with a selection of clear calls. Calls follow the shape of the dose curve; as a rule, active = well fitted inhibition curve with a large enough effect (not every such curve was filed as active); inconclusive = small, poorly fitted or top-dose-only effect, or another doubt; inactive = no such curve, though single readings can be large or run the other way. No potency is given beside an inconclusive call; the fits are too rough. Potency is read from the fitted curve at half-maximal effect; tags tell the direction and shape of the fitted curve."}
{"target": "Aldehyde dehydrogenase 1A1 (Homo sapiens) (UniProt P00352)", "sequence (P00352 whole entry, looked up)": "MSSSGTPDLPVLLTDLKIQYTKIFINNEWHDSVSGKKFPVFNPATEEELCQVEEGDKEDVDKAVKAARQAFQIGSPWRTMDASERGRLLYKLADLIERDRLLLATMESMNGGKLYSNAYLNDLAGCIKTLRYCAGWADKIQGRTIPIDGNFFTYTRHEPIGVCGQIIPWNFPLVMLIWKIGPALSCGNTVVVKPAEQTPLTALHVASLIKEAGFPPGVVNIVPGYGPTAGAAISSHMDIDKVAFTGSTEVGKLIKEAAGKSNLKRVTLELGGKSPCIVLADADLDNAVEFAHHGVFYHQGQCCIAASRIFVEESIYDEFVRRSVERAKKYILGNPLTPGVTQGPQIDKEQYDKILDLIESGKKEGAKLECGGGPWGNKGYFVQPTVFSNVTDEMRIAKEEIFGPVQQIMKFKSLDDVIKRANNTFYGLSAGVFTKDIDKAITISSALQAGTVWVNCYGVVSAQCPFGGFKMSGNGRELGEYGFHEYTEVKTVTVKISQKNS", "test": "qHTS Assay for Inhibitors of Aldehyde Dehydrogenase 1 (ALDH1A1)", "details": "Purified ALDH1A1, NADH fluorescence, propionaldehyde substrate; series mostly up to 75.3 µM"}
{"smiles": "Nc1nnc2c(n1)CCCC2", "Potency": "inconclusive [inhibitor, single point]"}
{"smiles": "CC1(C)Cc2c(c(-c3ccco3)[nH]c(=O)c2C#N)CO1", "Potency": "inconclusive [inhibitor, partial curve]"}
{"smiles": "CCN(CC)c1ccc(/C=N/Nc2cccc(C)c2)c(O)c1", "Potency": "active: 10 µM"}
{"smiles": "C/C(=C\\C(=O)c1ccc(C)o1)Nc1ccc2c(c1)OCO2", "Potency": "inconclusive [inhibitor, single point]"}
{"smiles": "O=C(CCS(=O)(=O)c1cccs1)Nc1ccc(C(=O)NCc2ccc(F)cc2)cc1", "Potency": "inconclusive [inhibitor, single point]"}
{"smiles": "Cc1cc(C)n(CC(=O)c2ccc(Cl)cc2)n1", "Potency": "inactive"}
{"smiles": "CCCSc1ccc2nc(-c3ccccc3)cn2c1", "Potency": "inconclusive [inhibitor, single point]"}
{"smiles": "COc1cc(/C=C(\\C#N)c2nn(CCO)c(N)c2C#N)cc(OC)c1OC", "Potency": "inconclusive [inhibitor, single point]"}
{"smiles": "CCc1ccccc1NC(=S)N=Nc1c(O)n(C)c2ccc(S(=O)(=O)N3CCOCC3)cc12", "Potency": "inconclusive [inhibitor, single point]"}
{"smiles": "O=C(CCc1nnc(CCC2CCCCC2)o1)NCc1ccon1", "Potency": "inactive"}
{"smiles": "CCN(CC)S(=O)(=O)c1cccc(-c2n[nH]c(=S)n2Cc2ccccc2)c1", "Potency": "active: 7.08 µM"}
{"smiles": "Cc1ccc(C2OCC3(CO)COC(c4ccc(C)cc4)N23)cc1", "note": "(configuration not stated)", "Potency": "active: 4.47 µM"}
{"smiles": "COc1ccc([N+](=O)[O-])cc1N(CC1CO1)S(=O)(=O)c1ccc(C)cc1", "note": "(configuration not stated)", "Potency": "inactive"}
{"smiles": "Cc1cc(Cl)ccc1OCC(=O)NCc1ccncc1", "Potency": "inactive"}
{"smiles": "Clc1ccccc1-c1nc2ccccc2[nH]1", "Potency": "inconclusive [inhibitor, single point]"}
{"smiles": "COc1ccc(N(CC(=O)NCc2cccs2)S(=O)(=O)c2cccnc2)cc1", "Potency": "inconclusive [inhibitor, partial curve]"}
{"smiles": "O=C(C1CC1)N(Cc1ccco1)c1nc(-c2ccccc2)cs1", "Potency": "active: 6.31 µM"}
{"smiles": "CCCCN(Cc1ccco1)C(=O)c1cc2c(=O)[nH]c3ccc(C)cc3c2s1", "Potency": "inconclusive [inhibitor, partial curve]"}
{"smiles": "O=C(O)C1CCCNC1", "note": "(configuration not stated)", "Potency": "inactive"}
{"smiles": "CC(=O)c1ccc(NC(=S)NC(C)CCc2ccccc2)cc1", "note": "(configuration not stated)", "Potency": "inactive"}
{"smiles": "Cc1noc(C)c1C(=O)N1CCC[C@@]2(CCN(C(c3ccccc3)c3ccccc3)C2)C1", "Potency": "inactive"}
{"smiles": "COc1ccc(COC(=O)N/C=C/c2ccco2)cc1", "Potency": "active: 28.2 µM"}
{"smiles": "Cc1ccc(O)c(CO)n1", "Potency": "inconclusive [inhibitor, single point]"}
{"smiles": "COC(=O)c1ccccc1NC(=O)N1CCN(S(=O)(=O)c2ccc(Cl)cc2)CC1", "Potency": "inconclusive [inhibitor, single point]"}
{"smiles": "CCSCc1nnc(SCC(=O)Nc2ccc(OC)cc2)n1C", "Potency": "inconclusive [inhibitor, single point]"}
{"smiles": "O=C(/C=C/c1cn(-c2ccccc2)nc1-c1cccnc1)N1CCCC1", "Potency": "inconclusive [inhibitor, single point]"}
{"smiles": "Cc1cc(OCC(=O)Nc2ccccc2F)nc(C(C)C)n1", "Potency": "inactive"}
{"smiles": "C=CCn1c(=NC(=O)c2ccc(S(=O)(=O)N3CCCC3)cc2)sc2cc(NC(C)=O)ccc21", "Potency": "inconclusive [inhibitor, partial curve]"}
{"smiles": "CN(CC(=O)Nc1cccc(F)c1)C(=O)CCCc1cccs1", "Potency": "inactive"}
{"smiles": "O=C1CCCc2[nH]c(-c3ccccc3)nc21", "Potency": "inactive"}
{"smiles": "CO/N=C/C1CCN(c2ncc(C(F)(F)F)cc2Cl)C1=O", "note": "(configuration not stated)", "Potency": "active: 31.6 µM"}
{"smiles": "COC(=O)c1[nH]c2ccc(C)cc2c1NC(=O)CN1CCCC(C)(C)C1", "Potency": "inconclusive [inhibitor, single point]"}
{"smiles": "COc1ccc(O)c(/C=N/NC(=S)Nc2cccc(S(=O)(=O)N(C)C)c2)c1", "Potency": "inconclusive [inhibitor, partial curve]"}
{"smiles": "COC(=O)c1ccc[n+](CC(=O)c2ccc(Br)cc2)c1", "Potency": "inconclusive [inhibitor, partial curve, poor fit]"}
{"smiles": "CC1CC[C@@]2(OC1)OC1CC3C4CC[C@@H]5CC(O)CC[C@@]5(C)C4CC[C@]3(C)C1C2C", "note": "(some centres not stated)", "Potency": "inactive"}
{"smiles": "CC(C(=O)O)c1ccc2c(c1)[nH]c1ccc(Cl)cc12", "note": "(configuration not stated)", "Potency": "inactive"}
{"smiles": "O=C(NCc1ccccc1Cl)c1cnc2n(c1=O)CCS2", "Potency": "active: 14.1 µM"}
{"smiles": "CCOC(=O)c1c(NC(=O)C2C3C=CC(C3)C2C(=O)O)sc2c1CC(C)(C)OC2", "note": "(configuration not stated)", "Potency": "inactive"}
{"smiles": "CCOC(=O)CSc1nc2c(sc(=S)n2CCc2ccccc2)c(=O)n1Cc1ccco1", "Potency": "active: 31.6 µM"}
{"smiles": "Cc1ccc([N+](=O)[O-])cc1-c1[nH]c(-c2ccc(O)c(O)c2)nc1-c1ccccc1", "Potency": "active: 22.4 µM"}
{"smiles": "CCOC(=O)C1CCN(C(=O)C2CC(=O)N(c3ccc(C)cc3)C2)CC1", "note": "(configuration not stated)", "Potency": "inactive"}
{"smiles": "COc1ccc(-c2[nH]ncc2CN(C)CCc2c(C)n[nH]c2C)c(F)c1", "Potency": "active: 10 µM"}
{"smiles": "c1ccc(Oc2ccc(-c3ccnc4nc(N5CCOCC5)nn34)cc2)cc1", "Potency": "inconclusive [inhibitor, partial curve]"}
{"smiles": "O=C(O)c1cccc(NC(=O)c2ccc3c(c2)C(=O)N(CC2CCCO2)C3=O)c1", "note": "(configuration not stated)", "Potency": "inconclusive [inhibitor, partial curve]"}
{"smiles": "CN1C(=O)c2oc3ccc(Br)cc3c(=O)c2C1c1ccncc1", "note": "(configuration not stated)", "Potency": "inconclusive [inhibitor, single point]"}
{"smiles": "Cc1cc(C)nc(/N=C(\\N)C2=C(O)CC(C)(C)CC2=O)n1", "Potency": "active: 3.16 µM"}
{"smiles": "CC(=O)c1nn(-c2ccc(Br)cc2)cc1C(=O)c1ccco1", "Potency": "inconclusive [inhibitor, single point]"}
{"smiles": "O=S1(=O)CCC(NC(=S)N2CCCCC2)C1", "note": "(configuration not stated)", "Potency": "inactive"}
{"smiles": "COc1ccc(C(=O)N2CCN(C(C)=O)CC2)cc1S(=O)(=O)N1CCOCC1", "Potency": "inactive"}
{"smiles": "CC1CCN(c2ccc(C(=O)OCC(=O)NCCN3C(=O)CSC3=O)cc2[N+](=O)[O-])CC1", "Potency": "inconclusive [inhibitor, partial curve]"}
{"smiles": "CC(=O)OC(C)(C)C1Cc2cc3ccc(=O)oc3cc2O1", "note": "(configuration not stated)", "Potency": "inconclusive [inhibitor, partial curve]"}
{"smiles": "CCCCn1c(N)c(N(CCOC)C(=O)CCc2ccc(OC)cc2)c(=O)[nH]c1=O", "Potency": "inactive"}
{"smiles": "COc1ccc(OC)c(C(c2nnnn2Cc2ccco2)N2CCN(C)CC2)c1", "note": "(configuration not stated)", "Potency": "inactive"}
{"smiles": "O=C(Nc1nc(-c2ccccn2)cs1)C1CC(=O)N(c2ccc3c(c2)OCCO3)C1", "note": "(configuration not stated)", "Potency": "inconclusive [inhibitor, single point]"}
{"smiles": "O=C(Nc1nc2ccccc2s1)C1CC(=O)N(c2ccc(Br)cc2)C1", "note": "(configuration not stated)", "Potency": "inactive"}
{"smiles": "O=C(O)c1ccccc1C(=O)Nc1ccc(-c2csc(-c3ccccc3)n2)cc1", "Potency": "inconclusive [inhibitor, single point]"}
{"smiles": "O=C(Nc1cccnc1)c1ccc(N2CCCC2)c([N+](=O)[O-])c1", "Potency": "active: 7.94 µM"}
{"smiles": "CCCCCC(C)NC(=S)NC(=O)c1cc(S(=O)(=O)N2CCOCC2)ccc1C", "note": "(configuration not stated)", "Potency": "inconclusive [inhibitor, single point]"}
{"smiles": "S=C(c1ccc(-c2cccc(Cl)c2)o1)N1CCOCC1", "Potency": "active: 11.2 µM"}
{"smiles": "O=C(O)c1ccccc1NCN1C(=O)C2CC=C(Cl)CC2C1=O", "note": "(configuration not stated)", "Potency": "inconclusive [inhibitor, partial curve]"}
{"smiles": "Cc1cc(NC(=O)CCCC(=O)NCc2cccs2)no1", "Potency": "inactive"}
{"smiles": "CCOC(=O)C1(CCCc2ccccc2)CCN(C(=O)CCn2cnnn2)CC1", "Potency": "inconclusive [inhibitor, partial curve]"}
{"smiles": "O=C(Oc1cccc(Nc2ncnc3ccccc23)c1)c1cccnc1", "Potency": "inconclusive [inhibitor, single point]"}
{"smiles": "Cc1c(NC(=O)c2c(N)sc3c2CCCC3)c(=O)n(-c2ccccc2)n1C", "Potency": "inconclusive [inhibitor, single point]"}
{"smiles": "CCn1c(CSc2nnc(-c3cccnc3)n2-c2ccccc2C)nc2cc(C(=O)O)ccc21", "Potency": "inconclusive [inhibitor, single point]"}
{"smiles": "CCS(=O)(=O)c1ccc2oc(Nc3ccc(C(C)C)cc3)nc2c1", "Potency": "active: 3.98 µM"}
{"smiles": "CCc1nc(C)cn1S(=O)(=O)c1cc(F)ccc1OC", "Potency": "inactive"}
{"smiles": "O=C(/C=C/c1ccncc1)c1ccc(NC(=O)c2ccccc2F)cc1", "Potency": "inconclusive [inhibitor, single point]"}
{"smiles": "Cc1cc(NC(=O)c2cccc(COc3ccc(Br)cc3)c2)no1", "Potency": "inactive"}
{"smiles": "COc1cc(CN2CCN(c3cccc(C)c3C)CC2)cc(OC)c1O", "Potency": "inactive"}
{"smiles": "O=C(COc1ccccc1)Nc1nc(-c2cccs2)cs1", "Potency": "inactive"}
{"smiles": "COC(=O)c1cc(OC)c(OC)cc1NC(=O)CCC1CCCC1", "Potency": "inconclusive [inhibitor, partial curve]"}
{"smiles": "c1ccc(-c2noc(CSc3nnc(Cc4cccs4)n3-c3ccccc3)n2)cc1", "Potency": "inconclusive [inhibitor, single point]"}
{"smiles": "CCOCCCNCc1cccc(OC)c1", "Potency": "inconclusive [inhibitor, partial curve]"}
{"smiles": "CCn1c2ccccc2c2cc(C3C(C#N)=C(C)NC(C)=C3C#N)ccc21", "Potency": "inconclusive [inhibitor, partial curve]"}
{"smiles": "Cc1nn(-c2ccccc2)c(N)c1C1(O)C(=O)N(C(C)C)c2ccccc21", "note": "(configuration not stated)", "Potency": "inconclusive [inhibitor, partial curve]"}
{"smiles": "COC(=O)c1nc2ccccn2c1F", "Potency": "inconclusive [inhibitor, partial curve]"}
